This is one part of the list.
Each sequence was assayed on PfSIP2 AP2 domain 1 (GST-tagged) (assay: gcPBM binding intensity (ln(normalized median fluorescence intensity)); higher = stronger DNA binding).
How it was run: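 Binding intensity values are the highest Masliner-normalised natural-log median intensity among replicate spots of either probe orientation. The binding step lasted 1 h in 1× PBS with 1% milk, 0.2 mg/ml BSA, 0.5% salmon testes DNA and 0.03% Triton X-100, using GST-tagged P. falciparum DNA-binding domains expressed in E. coli on an Agilent 4 × 180k array of primer-extended double-stranded 36-bp intergenic genomic probes plus negative controls. Alexa488 anti-GST antibody and a 488 nm scan detected bound protein.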

Sequence | gcPBM binding intensity (ln)
CACACGCACGGACACACACACATATAAAATCTATAT [CACACA_site6428] | 7.54
TGTTATTAAAATATAGTGCATAATTAACCATTATAA [GTGCAC_site9594] | 8.63
TACTTATATACACATGTATATTATATATATAATATA [XGTACX_negctrl_site335] | 7.31
TACTATAACAGACATACACACAAAAAAAAAAAAAAA [CACACA_site538] | 7
ATTTTTTTTTTTTTTTTTTTTTTTTTTTAATCTGGA [CACACA_negctrl_site1347] | 6.75
ATATTTAACAGGTTAAAAATATAAACAAATAAATAA [CACACA_negctrl_site907] | 6.85
GAGAGGATAGTTCACAGTACTCAGTAACTCTACGGA [XGTACX_site4875] | 6.62
AAAAAAAAATAATATACACACTCCAATATAAAAAAT [CACACA_site3958] | 6.94
TGTGTATTATAAACATGTACATAAAAATACGATATT [XGTACX_site3643] | 7.29
CGCACTAAAAAACACACACACACACCCATATATATA [CACACA_site4152] | 7.77
TTTTTCCCCCTTTTTTTGATTTTTATCTTAATTCTA [TGCATGCA_negctrl_site287] | 6.85
TATTATATTGTTCATTTACACTTTCATTTTAAAAAA [CACACA_negctrl_site260] | 7.11
AATGATGTTGTATTGTTTCGATATAACATCTAATTT [GTGCAC_negctrl_site309] | 6.66
TTTTTTAAAATAATAGGTACACATAAAAAAAAAAAA [XGTACX_site2517] | 7.26
AAGGATTATTTTAATCGTACATGTGTAAATAATATA [XGTACX_site6177] | 6.98
TTTTTTCATTTTTTATTTTTTTATTTTTTACATATT [GTGCAC_negctrl_site137] | 6.92
TATATATATAGACACACACACATATAAATAAATAAA [CACACA_site444] | 8.07
CATACATACATACATACACACATATATATATATATG [CACACA_site1995] | 8.02
TTATTTATTTTCATATGTACTTATTTATAGAGGTTG [XGTACX_site5599] | 7.28
AATAATATACCTCTTGTGCACATATTAAAAGTTCAT [GTGCAC_site9536] | 9.3
TTCGTCTTTTTTCTCACACACCCTTTTTATTAAAAG [CACACA_site7225] | 7.86
AAAGAATACATATATTGTACATATATATATACCGTT [XGTACX_site6250] | 6.94

Sequence | gcPBM binding intensity (ln)
AGAATTAAAATAAAGGTGCATTTTTTTGTTTCATGT | 11
ATAATACAAAACACAAGTACATAAATTAAAAAGATG [XGTACX_site7839] | 7.1
TTCATTCATTTTATTACACACAAAAAAAAAAAAAAA [CACACA_site3680] | 7.13
AGTTATTTTATAGAATATGAATAATTTTACTTTTCA [XGTACX_negctrl_site403] | 6.55
AAAAAAAAAGGTACTACACACTATTCTCAATAGAAA [CACACA_site6193] | 6.64
AATTTCATTTTACTTATCTAATATTTATAATCTTTT [CACACA_negctrl_site636] | 6.9
AATTTTTATATAATTTAACACACATTTCATATAAAA [CACACA_site9018] | 7.15
TTAGGATATTTATTTCGTACATATATTTTTAATTGT [XGTACX_site582] | 6.9
TATAAATTATTTATCACACATAAAACAAAAATAAGA [CACACA_site5493] | 7.32
TACTTCATATAATTAGCACACAATAATTTCTCATTT [CACACA_site2872] | 7.23
ATATATATTAAAAATAGTACATATAATAAAAATCAT [XGTACX_site4265] | 7.11
TACATATTCCTACAAATGTATAAATTATAAATATTA [XGTACX_negctrl_site30] | 6.82
AACGATATAGGTACTACACACATTATGTCATCCTAT [CACACA_site7205] | 6.95
TGTATATGTTTAATTAGTACATATAAAGTAACAATA [XGTACX_site1207] | 7.04
ATATGAAATATATGTAGTACACATAATTAAAAGTAG [XGTACX_site6490] | 7.27
GATATGTTTTCCTAGGTTCATGATGATAGGTAGTTT [XGTACX_negctrl_site217] | 7.07
TTTGTGGTTACATGTGCACACACTTATTTCGTTCTT [CACACA_site1435] | 8.22
TGTTAATATATCATTATGTTATAGGTTCAGCTGGGA [CACACA_negctrl_site401] | 6.82
AATATATAAATTGACACACACATATATACATATATA [CACACA_site1213] | 7.04
AAGGTGGTTATTAAATGTACACAGACATATACAAAA [XGTACX_site3007] | 7.04
ATATGCTACATTATATGTACACACATATACATATAT [XGTACX_site1656] | 7.18
TAATATAAAGAAATATCAATAATTTGGGCAAATGCC [GTGCAC_negctrl_site621] | 6.86

Sequence | gcPBM binding intensity (ln)
AGGTAGAAAAAAGACACACACATTATATATATATAT [CACACA_site4367] | 9.34
TTTTATGCATGTGAAGTGCAAAATAAAAAATAAAAT [GTGCAC_site9612] | 10.2
TATATTTGTTAATTTTGTACGTATGGATATACATAA [XGTACX_site5100] | 7.13
TATAAATATAGAATTACACACAATGTTCTATAAATA [CACACA_site7508] | 6.65
AAAAAAATAATTTGTAGTACGATTCAATGAAAAGGC [XGTACX_site1287] | 7.44
ATACATATATACATATGTACATATATATATATATAT [XGTACX_site8206] | 8.9
TCTTTGAATTTTTTAACACACACATGGGTGGATATA [CACACA_site8474] | 6.9
TTGAAAATGAAAAAATGTACTTAAAAAAAAGGAACA [XGTACX_site8664] | 7.33
ATAAAATTGTATAACTGTACATATATATATATATAT [XGTACX_site5596] | 9.37
CCCACAAAGGAATATACACACATATATATATATATA [CACACA_site4091] | 9.71
TAAATATTTTTTTAGACACACATATATCTATGATAT [CACACA_site1107] | 6.71
ATGCTATATTAAAAACGTACAAACTGTTTAGAAAAA [XGTACX_site8943] | 7.01
TTTTTTCTTAAAGACATATATTTATTTGGTAAAACA [XGTACX_negctrl_site243] | 6.85
GGATATAACAGACACACACACACATATAAATATATT [CACACA_site7866] | 7.22
CAAAATAAAAATTAATGTACATAAAAAATGAATATA [XGTACX_site1085] | 7.02
TATTTACATTTATGTGCACACATTCCATTTGAAAGT [CACACA_site1954] | 8.85
AATAGAAAAAAAAAATGTACACATATAAAAGCATAT [XGTACX_site6306] | 6.94
CGGACATACATAGGAACATGCAAAATTTTTTATTTT [TGCATGCA_site575] | 6.78
TATTTTCTTTTTCTTGTACACACATAATATGGATGA [CACACA_site8168] | 7.15
TTTTTTTTTTTTTTTTGTACGTAAAAAAATATATAC [XGTACX_site1290] | 7.4
TTGTTATATTACAGTAGTACATTTAAAATCTACTAC [XGTACX_site2620] | 7.02
ATTTTTATTTACAACCCCAAAAAGGAAAAACATAAA [CACACA_negctrl_site1169] | 7.04

Sequence | gcPBM binding intensity (ln)
AATATTTATACTATAACACACATACAGACAAAAAAA [CACACA_site6396] | 7.15
TTACATTATATACATACACACCCACCCACAAAAAAA [CACACA_site8187] | 7.68
ATAATATCATCAAACGCACACATACATAAATATATT [CACACA_site5230] | 7.33
TATTTTTATAATATATGTACATATATATATATATTA [XGTACX_site5343] | 7.54
ACATATTATATGAATACACACAAAAACTTATCGGTA [CACACA_site3439] | 6.83
ACAGGAAAAAACAATTGTACATGTATATATATATAT [XGTACX_site7677] | 9.08
ATATATATATATATATGTACATATTTTATTTGAAAT [XGTACX_site7411] | 9.07
AAGACAATATATGCAGTGCATATACATACATATATA | 8.3
GCATAATATACTCTTACACACCATTTCTAAATACAT [CACACA_site4912] | 7.53
AAAAAAAAAAAAAAAAGTACGTATTTTTTTTAAAAT [XGTACX_site2654] | 7.37
TATATTATTTATTAGACACACATTATTAATATATTT [CACACA_site1078] | 7.08
TGGATTTTGTATTAATGTACATATATATATATATAT [XGTACX_site4442] | 9.57
CAGATAGACTTATATGCATGCATTCACATACCAACA [TGCATGCA_site163] | 7.01
AACAACATTTTGTAATGTACATATTTACTTATATTC [XGTACX_site7251] | 6.85
CCTCTTAATATGTGCACACTAAATTATAACATAATT [CACACA_site3259] | 10
TGAAAAGTAAAATACACACACATAATCTAATTTATA [CACACA_site7024] | 6.76
GGTTAACATAAATATATACACACCAATGATGGCATT [CACACA_site1568] | 6.9
AAATAATTAGAAATAGTGCACATAATTAAGGGATAC | 10.1
TAGAAATATATAAATTGTACATGTTTGTATAATATA [XGTACX_site2097] | 6.99
TATATTATTTATTTTTGTACATATTATGAATGAATA [XGTACX_site3971] | 6.99
TTACCTTTAAATGGATGTACAGAAATTTAAATTGTT [XGTACX_site7044] | 6.99
CTTCCTTCTAAATGCACACGGAAAGTATAAATGTAT [CACACA_site2501] | 8.34

Reference: the supplement of paper PMC11417369
